Data on 19 compounds can be found in publication PMC11360281 (Viruses, 2024).

The subject of data set [1] is YFV (strain 17D) subgenomic replicon. Description: microbe, parasite or virus in culture. The class given is cell-based. Conditions: for EC50: Yellow fever virus, read-out: YFV EC50.
Data set [2] deals with HCV genotype 1b (strain Con1) subgenomic replicon. Nature of the data set: HCV GT 1b (Con1) subgenomic replicon luciferase assay in Huh5-2 cells. It is filed as cell-based. Conditions: for SI: CC50/EC50, HCV GT 1b (Con1); for EC50: HCV GT 1b (Con1), Huh5-2 cells, F-Luc, 72 h, mean ± SD; for activity against HCV: HCV GT 1b replicon. A general note: In antiviral work, replicon cells carry a viral genome segment that copies itself.

The subject of data set [3] is DENV serotype 2 (strain 16681) subgenomic replicon. Description: microbe, parasite or virus in culture. The class given is cell-based. Conditions: for EC50: Dengue virus, DENV2, read-out: DENV EC50.
A short description of another data set: in vitro. The conditions noted are these: human.
In the next data set the test system is HCV NS5A. Description: Western blot analysis for NS5A in Huh5-2 cells. (A western blot detects proteins with antibodies after separation by electrophoresis.)
The test system of data set [4] is HCV GT 2a (strain JFH1) subgenomic replicon. Nature of the data set: HCV GT 2a subgenomic replicon luciferase assay in Huh7-JFH1 cells. It is filed as cell-based. Conditions: for EC50: Hepatitis C virus, GT2A, HCV GT 2a (JFH1), Huh7-JFH1 cells, mean ± SD.
Data set [5] concerns HCV GT 3a (strain S52) subgenomic replicon. Description: HCV GT 3a subgenomic replicon luciferase assay in Huh7.5-3a cells. It is filed as cell-based. Conditions: for EC50: Hepatitis C virus, GT3A, HCV GT 3a (S52), Huh7.5-3a cells, mean ± SD.
For data set [6], the system named is HCV-N.2-GLuc/T181I (NS5B mutant T181I). Nature of the data set: microbe, parasite or virus in culture. It is filed as cell-based. The conditions noted are these: for EC50: Hepatitis C virus, Huh-7, 72 h; for mut/wt EC50 ratio (fold less susceptible): T181I mutant vs wild-type HCV-N.2-GLuc.
The test system of data set [7] is HCV GT 1b (Con1) replicon. It is filed as cell-based. Conditions: 36-adapted vs DMSO-adapted Huh5-2 replicon cells.
Data set [8] deals with HCV RNA (subgenomic Con1 replicon). Conditions: Hepatitis C virus, Huh-5-2, read-out: HCV RNA: EC50.
The subject of data set [9] is HCV GT 4a (strain ED43) subgenomic replicon. Nature of the data set: HCV GT 4a subgenomic replicon luciferase assay in Huh7.5-4a cells. It is filed as cell-based. Conditions: Hepatitis C virus, GT4A, HCV GT 4a (ED43), mean ± SD.
In data set [10] the test system is wild-type HCV-N.2-GLuc (GT 1b full-length). Nature of the data set: microbe, parasite or virus in culture. The class given is cell-based. Conditions: Hepatitis C virus, GT1B, Huh-7, 72 h.
In data set [11] the test system is HCV GT 1b (Con1) replicon. Description: Combinatory treatment with DSV or Peg-IFN in Huh5-2 replicon cells, F-Luc. Conditions: for type of interaction with DSV: Huh5-2 replicon cells.
[12] abbreviates: Hepatitis C virus, GETYPE1B|GT1B, Huh-5-2, 72 h, read-out: EC50.
Setting [13] is: Hepatitis C virus, GETYPE1B|GT1B, Huh-5-2, 72 h.
[14] abbreviates: compound 25 μM + 10 IU/mL Peg-IFN.
Setting [15] is: compound 50 μM + 10 IU/mL Peg-IFN.

The structures appear in SMILES notation. Where “and” joins values, the source holds several entries; their conditions need not be identical. Equal entries are not always repeated. Where two headings read alike, the source gives them in different places.

For orientation: EC50 means the concentration needed to bring the measured effect to its halfway point. As for `O=C1Cn2c(cc3ccccc32)C(=O)N1O` [Compound 6], the “YFV SI” value in [1] is given as over 3.48. Further, the EC50 in data set [1] is 57.6 ± 2.64 µM; in data set [2] (setting [12]) it was 127 ± 8.98 µM; in data set [3], over 200 µM. Besides, the SI in data set [2] is given as over 1.6. Further, in the data set “in vitro”, the CC50 was over 200 µM.
As for `O=C(CN1C(=O)Cn2cccc2C1=O)NO` [Compound 62], the EC50 in data set [1], in data set [2] (setting [12]) and in [3] was over 200 µM throughout. In addition, the “activity against HCV” value in data set [2] is “inactive”. Besides, in “in vitro”, the CC50 was over 200 µM.
Take `O=C1Cn2c(cc3ccccc32)C(=O)N1` [Compound 40, pyrazino[1,2-a]indole-1,3(2H,4H)-dione]: the EC50 in [1], in data set [2] (setting [13]) and in data set [3] was over 200 µM in each case. In addition, in the data set “in vitro”, the CC50 was over 200 µM.
On to `O=C1Cn2cccc2C(=O)N1O` [Compound 58, 2-hydroxypyrrolo[1,2-a]pyrazine-1,3(2H,4H)-dione], for which the EC50 in data set [1] was over 200 µM; in data set [2] (setting [12]), over 200 µM; in data set [3], 131 ± 10.1 µM. The “activity against HCV” value in [2] was “inactive”. For the same compound, in data set [3], the “DENV SI” value is on record as over 1.52. In “in vitro”, this compound returned a CC50 of over 200 µM.
Take `O=C1Cn2c(cc3cc(O)ccc32)C(=O)N1O` [Compound 39]: the EC50 in [1], in data set [2] (setting [13]) and in data set [3] was over 200 µM in each case. Besides, the CC50 in “in vitro” is over 200 µM.
Turning to `COc1cc2cc3n(c2cc1OC)CC(=O)N(O)C3=O` [Compound 24], the EC50 in data set [1], in data set [2] (setting [12]) and in data set [3] was over 200 µM throughout. In “in vitro”, this compound displayed a CC50 of over 200 µM.
As for `O=C(CN1C(=O)Cn2c(cc3ccccc32)C1=O)NO` [Compound 44], the EC50 in data set [1], in data set [2] (setting [12]) and in data set [3] was over 200 µM each time. Besides, the CC50 in “in vitro” was over 200 µM.
`O=C1Cn2c(cc3cc(F)ccc32)C(=O)N1O` [Compound 12]: the EC50 in data set [1] is over 200 µM; in data set [2] (setting [12]) it was 81 ± 8.24 µM; in data set [3] it was over 200 µM. In addition, the SI in data set [2] was over 2.5. For the same compound, in the data set “in vitro”, the CC50 was over 200 µM.
Turning to `CC1C(=O)N(O)C(=O)c2cc3ccccc3n21` (stereo not shown) [Compound 66], the “YFV SI” value in data set [1] is given as 5.85. In addition, in data set [1] (YFV, 66 compared to 6), the “fold higher potency than compound 6” value is ~ 2 fold. Moreover, the figures for the concentration for a half-maximal effect (EC50) in data set [1], in data set [2] (setting [12]) and in data set [3] were 30.3 ± 2.1 µM, 99.7 ± 5.52 µM and over 100 µM, respectively. This compound returned an SI in data set [2] of 1.8. In addition, in the data set “in vitro”, the CC50 was found to be 177 ± 5.71 µM.
As to `CC1C(=O)N(O)C(=O)c2cc3cc(Cl)ccc3n21` (stereo not shown) [Compound 78], the “YFV SI” value in [1] came to 15.22. The results for the EC50 in [1], in [2] (setting [12]) and in data set [3] were 6.57 ± 0.33 µM, 12.9 ± 0.39 µM and over 50 µM, respectively. In addition, in data set [2], the SI is on record as 7.8. Moreover, in “in vitro”, the CC50 was 99.9 ± 3.54 µM.
As to `COc1ccc2c(c1)cc1n2CC(=O)N(O)C1=O` [Compound 18], the EC50 in [1], in data set [2] (setting [12]) and in [3] was over 200 µM throughout. Moreover, the CC50 in “in vitro” was over 200 µM.
With `Nc1cccc2cc3n(c12)CC(=O)N(O)C3=O` [Compound 38], the EC50 in data set [1] was over 200 µM. Moreover, in [2] (setting [12]), the 50% effective concentration (EC50) was over 200 µM. In addition, in [3], the “DENV SI” value is given as over 2.66, the “activity against DENV replication” value is “moderate activity” and the EC50 worked out at 75.2 ± 6.58 µM. The compound also returned a CC50 in “in vitro” of over 200 µM.
In the case of `O=C(CN1C(=O)Cn2c(cc3cc(F)ccc32)C1=O)NO` [Compound 48], the EC50 in data set [1], in data set [2] (setting [12]) and in data set [3] was over 200 µM in each case. In addition, in the data set “in vitro”, the CC50 was over 200 µM.
As for `O=C(O)CN1C(=O)Cn2c(cc3cc(F)ccc32)C1=O` [Compound 46], the EC50 in data set [1], in [2] (setting [12]) and in [3] was over 200 µM each time. The compound further registered a CC50 in “in vitro” of over 200 µM.
On to `O=C(CN1C(=O)Cn2c(cc3cc(Cl)ccc32)C1=O)NO` [Compound 52], for which the EC50 in data set [1] is over 200 µM; in data set [2] (setting [12]), over 200 µM; in data set [3], 61.3 ± 3.1 µM. Moreover, the “DENV SI” value in data set [3] is recorded as over 3.26. Further, the “activity against DENV replication” value in data set [3] is “moderate activity”. In “in vitro”, this compound gave a CC50 of over 200 µM.
Turning to `CC1C(=O)N(O)C(=O)c2cc3cc(F)ccc3n21` (stereo not shown) [Compound 70], the “YFV SI” value in [1] is given as 7.41. Further, the figures for the EC50 in data set [1], in [2] (setting [12]) and in data set [3] were 11.7 ± 0.66 µM, 32.9 ± 1.93 µM and over 50 µM, respectively. The compound further had an SI in data set [2] of 2.6. The CC50 in the data set “in vitro” was determined as 86.5 ± 3.36 µM.
In the case of `O=C1Cn2c(cc3cccc([N+](=O)[O-])c32)C(=O)N1O` [Compound 36], the “NS5A (% of C)” value with HCV NS5A (36 at 12.5 μM) was 34.56 ± 2.7 % of C; with HCV NS5A (36 at 25 μM) it was 27.98 ± 1.19 % of C; with HCV NS5A (36 at 50 μM), 3.95 ± 1.14 % of C. Also, in data set [4], the “activity against GT 2a” value is listed as “moderate activity”. Moreover, the EC50 in data set [4] is 78.3 ± 3.44 µM; in [5], 27.9 ± 1.64 µM; in data set [1], 144 ± 4.9 µM; in data set [6], 3.3 ± 0.18 µM; in [8], 3.97 µM; in [9], over 100 µM. Also, the EC50 in [2] (read-out: EC50) was determined as 1.61 ± 0.32 µM; in data set [2] (setting [12]), 1.6 µM; in data set [10], 1.36 ± 0.11 µM; in data set [3], 124 ± 6.49 µM. In addition, in [5], the “activity against GT 3a” value was “moderate activity”. Also, in [1], the “YFV SI” value was 1.22. In addition, the “mut/wt EC50 ratio (fold less susceptible)” value in data set [6] turned out to be 2.43. Further, the “36/DMSO EC50 ratio (fold reduction of activity)” value in [7] was 3.67 and ~ 3. Moreover, the SI in [2] stood at 108.9. Further, the “fold higher potency than 30” value in [2] (HCV GT 1b, 36 compared to 30) was “about 6 fold”. The “type of interaction with DSV” value in data set [11] was “synergistic effect”. In addition, the “CDI (coefficient of drug interaction)” value is “≈ 0.9” in data set [11] (combined with DSV); “≈ 0.75” in data set [11] (combined with Peg-IFN); 0.89 in data set [11] (compound 25 μM + 10 pM DSV); 0.80 in data set [11] (setting [14]); 0.91 in [11] (compound 50 μM + 10 pM DSV); 0.74 in data set [11] (setting [15]). The “DENV SI” value in [3] was 1.41. The same compound had a CC50 in “in vitro” of 175 ± 13.5 µM.
Take `O=C1Cn2c(cc3cc(Cl)ccc32)C(=O)N1O` [Compound 30]: the “activity against GT 2a” value in [4] was “inactive”. Further, the EC50 in data set [4] was over 100 µM; in [5], over 100 µM; in data set [1] it was over 200 µM; in data set [6], 31.5 ± 4.58 µM; in [9], 84.7 ± 5.28 µM; in [2] (setting [12]), 9.9 ± 1.75 µM. Moreover, the EC50 was 12.2 ± 1.18 µM in [10] and over 200 µM in data set [3]. In data set [5], the “activity against GT 3a” value is “inactive”. The “mut/wt EC50 ratio (fold less susceptible)” value in data set [6] worked out at 2.57. In data set [2], this compound came in with an SI of over 20.2. Also, the “type of interaction with DSV” value in data set [11] is “additive effect”. In addition, the “CDI (coefficient of drug interaction)” value is reported as “≈ 1” in data set [11] (combined with DSV); “≈ 0.75” in data set [11] (combined with Peg-IFN); 1.09 in [11] (compound 25 μM + 10 pM DSV); 0.76 in data set [11] (setting [14]); 0.97 in data set [11] (compound 50 μM + 10 pM DSV); 0.76 in data set [11] (setting [15]). In the data set “in vitro”, this compound returned a CC50 of over 200 µM.
For `COc1ccc2c(c1)cc1n2C(C)C(=O)N(O)C1=O` (stereo not shown) [Compound 74], the “YFV SI” value in [1] is 4.82. In addition, the EC50 is 20.9 ± 1.28 µM in data set [1], 61.1 ± 1.72 µM in data set [2] (setting [12]) and over 50 µM in data set [3]. In data set [2], this compound showed an SI of 1.6. Further, the CC50 in “in vitro” came out at 101 ± 4.05 µM.
